# Measured values taken from the supplement of paper PMC8728848.
# The other results are listed elsewhere or left out.
# B1: a L Fucosidase (Streptosporangium roseum), D2B1P1_STRRD (protein)
# chain: MRRKLLLVPAVGLLVIGSIFATQPVASADTPPVYEPTVESLNSHPVPQWFNDDKFGIFIHWGAYSVPAWGPRGSYAEWYGNYMNAGGSATNAHHKATYGQDFNYDAFLQQWKAEKFDPADWVKLFKDAGAKYFVLTSKHHEGMALWDSKSSGRDSVDLGPGRDLAKELFDAARKDEAKLKAGFYYSLYEWYNPAYTGRPATNPYTGAEIPYTGAPGGGDYVKDYMLPQMRELIDGYDPDIIWCDGQWEKPASYWNTAGVIADYYNKALNSGKEVAVANRCKIQSGNLDSPELDFQTPEYTVKPDIDPVKWESSRGIAHSYGYNQNEPEEDHLTSDQLVDSLVDIVSKNGNLLLDIGPKADGTIPEIQRQRLLDIGAWLKANGEAIYGTTYWNRAEEKGGPDDVRYTAKDATLYATALKWPGEQLTLGADLPVDHSTRITMLGSGARLSWSRDEQGRVVVNTPQEAGKHAYVFKIETPGVRSLLRTSSSLAKEIAPGRTISGELTVTNPGKRHTPATKLSLTVPQGWTATLGAPRVRPLGPGESVKVPISVSAPEGVAPAPYTLGLYQRTGRMGTTTALPLTVNRPNLSLGKPATQKSTGYDAPASRAVDGNTGGDWSAGSTTHTAEPEKQAWWQVDLGASARLDSVDVWNRLDCCADRLKDFWVMASDQPFTTDDLDQARTAPGVTAVHVGEQAGSPSKVKLPEGTRGRYVRIQLASPSNPLSLAEVQVRGSMARPNLSLGKPATQKSTGYDAPASRAVDGNTGGDWSAGSTTHTAEPEKQAWWQVDLGASARLDSVDVWNRLDCCADRLKDFWVMASDQPFTTDDLDQARTAPGVTAVHVGEQAGSPSKVKLPEGTRGRYVRIQLASPSNPLSLAEVQVRLEHHHHHHS
# How the values were obtained:
# Test in all cases: glycan array binding signal (z-score within array); higher = stronger binding
# Settings in all cases: glycan notation: IUPAC condensed, linker removed
# GalNAc(b1-4)GlcNAc = target: GalNAc(b1-4)GlcNAc
# Outline: (§1)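 The Consortium for Functional Glycomics database supplied 3228 glycan arrays, of which those lacking an available protein sequence were dropped. The binding signal, a within-array Z-score, was averaged across arrays of the same protein sequence and across linkers. Negative scores can be read as non-binding.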
# [1] = target: GalNAc(b1-4)GlcNAc(b1-2)Man
# Outline: as §1
# [2] = target: GalNAc(b1-4)GlcNAc(b1-2)Man(a1-3)[GalNAc(b1-4)GlcNAc(b1-2)Man(a1-6)]Man(b1-4)GlcNAc(b1-4)GlcNAc
# Outline: as §1
# [3] = target: GalNAc(b1-4)GlcNAc(b1-3)GalNAc(b1-4)GlcNAc
# Outline: as §1
# GalNAc(b1-4)GlcNAc6S = target: GalNAc(b1-4)GlcNAc6S
# Outline: as §1
# GalNAc(b1-6)GalNAc = target: GalNAc(b1-6)GalNAc
# Outline: as §1
# GalNAc3S(b1-4)GlcNAc = target: GalNAc3S(b1-4)GlcNAc
# Outline: as §1
# GalNAc3S(b1-4)GlcNAc3S = target: GalNAc3S(b1-4)GlcNAc3S
# Outline: as §1
# [4] = target: GalNAc3S(b1-4)[Fuc(a1-3)]GlcNAc
# Outline: as §1
# GalNAc4S6S(b1-4)GlcNAc = target: GalNAc4S6S(b1-4)GlcNAc
# Outline: as §1
# GalNAc6S(b1-4)GlcNAc = target: GalNAc6S(b1-4)GlcNAc
# Outline: as §1
# Glc(a1-4)Glc = target: Glc(a1-4)Glc
# Outline: as §1
# [5] = target: Glc(a1-4)Glc(a1-4)Glc(a1-4)Glc
# Outline: as §1
# Glc(a1-6)Glc(a1-6)Glc = target: Glc(a1-6)Glc(a1-6)Glc
# Outline: as §1
# [6] = target: Glc(a1-6)Glc(a1-6)Glc(a1-6)Glc
# Outline: as §1
# Glc(b1-4)Glc = target: Glc(b1-4)Glc
# Outline: as §1
# Glc(b1-6)Glc = target: Glc(b1-6)Glc
# Outline: as §1
# GlcA(b1-3)Gal = target: GlcA(b1-3)Gal
# Outline: as §1
# GlcA(b1-3)GlcNAc = target: GlcA(b1-3)GlcNAc
# Outline: as §1
# GlcA(b1-6)Gal = target: GlcA(b1-6)Gal
# Outline: as §1
# [7] = target: GlcA3S(b1-3)Gal(b1-4)GlcNAc(b1-2)Man
# Outline: as §1
# [8] = target: GlcA3S(b1-3)Gal(b1-4)GlcNAc(b1-3)Gal(b1-4)Glc
# Outline: as §1
# [9] = target: GlcNAc(a1-3)Gal(b1-4)GlcNAc
# Outline: as §1
# [10] = target: GlcNAc(a1-4)Gal(b1-3)GlcNAc
# Outline: as §1
# [11] = target: GlcNAc(a1-4)Gal(b1-4)GalNAc
# Outline: as §1
# [12] = target: GlcNAc(a1-4)Gal(b1-4)GlcNAc
# Outline: as §1
# [13] = target: GlcNAc(a1-4)Gal(b1-4)GlcNAc(b1-3)Gal(b1-4)Glc
# Outline: as §1
# [14] = target: GlcNAc(a1-4)Gal(b1-4)GlcNAc(b1-3)Gal(b1-4)GlcNAc
# Outline: as §1
# [15] = target: GlcNAc(a1-4)Gal(b1-4)GlcNAc(b1-3)Gal(b1-4)GlcNAc(b1-3)Gal(b1-4)GlcNAc
# Outline: as §1
# [16] = target: GlcNAc(a1-4)Gal(b1-4)GlcNAc(b1-3)Gal(b1-4)[Fuc(a1-3)]GlcNAc(b1-3)Gal(b1-4)[Fuc(a1-3)]GlcNAc
# Outline: as §1
binder,measurement,setting,value
B1,glycan array binding signal (z-score),GalNAc(b1-4)GlcNAc,-0.528
same,glycan array binding signal (z-score),[1],-0.597
same,glycan array binding signal (z-score),[2],-0.34
same,glycan array binding signal (z-score),[3],-0.14
same,glycan array binding signal (z-score),GalNAc(b1-4)GlcNAc6S,-0.397
same,glycan array binding signal (z-score),GalNAc(b1-6)GalNAc,-0.589
same,glycan array binding signal (z-score),GalNAc3S(b1-4)GlcNAc,-0.625
same,glycan array binding signal (z-score),GalNAc3S(b1-4)GlcNAc3S,-0.585
same,glycan array binding signal (z-score),[4],-0.535
same,glycan array binding signal (z-score),GalNAc4S6S(b1-4)GlcNAc,0.129
same,glycan array binding signal (z-score),GalNAc6S(b1-4)GlcNAc,-0.617
same,glycan array binding signal (z-score),Glc(a1-4)Glc,-0.488
same,glycan array binding signal (z-score),[5],-0.468
same,glycan array binding signal (z-score),Glc(a1-6)Glc(a1-6)Glc,-0.263
same,glycan array binding signal (z-score),[6],-0.415
same,glycan array binding signal (z-score),Glc(b1-4)Glc,-0.301
same,glycan array binding signal (z-score),Glc(b1-6)Glc,0.05
same,glycan array binding signal (z-score),GlcA(b1-3)Gal,-0.445
same,glycan array binding signal (z-score),GlcA(b1-3)GlcNAc,-0.107
same,glycan array binding signal (z-score),GlcA(b1-6)Gal,-0.444
same,glycan array binding signal (z-score),[7],-0.417
same,glycan array binding signal (z-score),[8],-0.319
same,glycan array binding signal (z-score),[9],-0.487
same,glycan array binding signal (z-score),[10],-0.526
same,glycan array binding signal (z-score),[11],-0.409
same,glycan array binding signal (z-score),[12],-0.493
same,glycan array binding signal (z-score),[13],-0.451
same,glycan array binding signal (z-score),[14],-0.405
same,glycan array binding signal (z-score),[15],-0.462
same,glycan array binding signal (z-score),[16],-0.182
